PubChem BioAssay AID624417 (National Center for Advancing Translational Sciences (NCATS), 2012)
Out of some 410,000 compounds screened, about 6,400 (1.6%) were called active. This list was built around the results that the source calls inconclusive (neither active nor inactive); the mix of calls is not that of the screen. The call rests on the fitted dose curve; in most records, active means well fitted inhibition curve with a large enough effect; inconclusive means small, poorly fitted or top-dose-only effect; inactive means no such curve, though single readings can be large or run the other way. No potency is given beside an inconclusive call; the fits are too rough.

molecular target: Glucagon-like peptide 1 receptor (Homo sapiens) (UniProt P43220); assay: qHTS of GLP-1 Receptor Inverse Agonists (Inhibition Mode); conditions: HEK293 GLP-1R CRE-luciferase, luminescence, 24 h, GLP-1R form is constitutively active; series mostly up to 38.3 µM; further: nearly all actives have a fitted effect of over 55% in size
Chain of UniProt P43220 (P43220 whole entry, looked up): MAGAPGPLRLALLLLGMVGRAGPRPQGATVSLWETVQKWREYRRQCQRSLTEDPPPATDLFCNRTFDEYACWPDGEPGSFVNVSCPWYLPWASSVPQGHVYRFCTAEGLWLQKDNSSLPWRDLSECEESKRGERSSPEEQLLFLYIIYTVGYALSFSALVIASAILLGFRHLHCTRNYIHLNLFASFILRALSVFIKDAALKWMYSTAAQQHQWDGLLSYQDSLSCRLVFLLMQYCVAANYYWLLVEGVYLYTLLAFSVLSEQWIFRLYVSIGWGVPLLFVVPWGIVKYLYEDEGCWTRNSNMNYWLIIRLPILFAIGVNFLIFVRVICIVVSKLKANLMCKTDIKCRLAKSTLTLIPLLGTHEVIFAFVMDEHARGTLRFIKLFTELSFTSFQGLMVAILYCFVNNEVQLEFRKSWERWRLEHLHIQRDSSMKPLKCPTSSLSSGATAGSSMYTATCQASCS
How it was run: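 Cells are plated, allowed 12 hours at 37 deg C, then treated with compounds for 24 hr before luciferase detection reagent is added and luminescence is read after 12 min at room temperature. The HEK293 line carries constitutively active GLP-1R with a cAMP-responsive reporter.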
Potency means the concentration at half of the fitted maximal effect; tags describe the fitted curve by direction and shape.

| SMILES | Potency |
| --- | --- |
| Cc1ccc(Sc2ccc(NC(=O)CCN3C(=O)NC4(CCCC4)C3=O)cc2)c(C)c1 | active: 11.2 µM |
| Cc1ccc(S(=O)(=O)C2(S(=O)(=O)c3ccc(C)cc3)CCCC2)cc1 | inconclusive [inhibitor, full curve, poor fit] |
| O=C(N/N=C/c1cccc(Br)c1)c1ccc(Cn2cc(Br)cn2)o1 | inconclusive [inhibitor, single point] |
| CCOC(=O)c1scc(-c2ccc(C)cc2)c1S(=O)(=O)Nc1cccc(CC)c1 | inconclusive [inhibitor, single point] |
| OC(c1ccccc1)c1nc(-c2cccc(C(F)(F)F)c2)cs1 (stereo not drawn) | inconclusive [inhibitor, single point] |
| CCCCCCNC(=O)CNC(=S)N(Cc1cccs1)C1CCCCC1 | inconclusive [inhibitor, full curve, poor fit] |
| CSc1ccc(S(=O)(=O)NCc2ccccc2C)cc1 | inconclusive [inhibitor, single point] |
| O=C(CSc1cccc2cccnc12)N/N=C/c1cccnc1 | inconclusive [inhibitor, partial curve, poor fit] |
| COc1ccccc1OCCn1c(C(C)Oc2ccccc2)nc2ccccc21 (stereo not drawn) | inconclusive [inhibitor, single point] |
| Cc1cc(C)c(OCC(=O)Nc2nc(-c3ccccn3)cs2)c(C)c1 | inconclusive [inhibitor, single point] |
| CCN(CC)CCNC(=O)c1ccc(-c2nc(CS(=O)(=O)c3ccc(C)cc3)c(C)o2)cc1 | inconclusive [inhibitor, partial curve, poor fit] |
| CC(C)(C)NC(=O)C1CN(S(=O)(=O)c2ccccc2)CCN1S(=O)(=O)c1ccccc1 (stereo not drawn) | inconclusive [inhibitor, partial curve, poor fit] |
| Cc1ccc(C2N(C)c3ccccc3-c3nc4ccccc4n32)o1 (stereo not drawn) | inconclusive [inhibitor, partial curve, poor fit] |
| O=C(Nc1cccc(-c2nc3ncccc3o2)c1)c1cc2ccccc2o1 | inconclusive [inhibitor, single point] |
| Cc1ccc(S(=O)(=O)NC(=O)c2ccc(-c3ccc(C)c4ccccc34)o2)cc1 | inconclusive [inhibitor, single point] |
| Cc1oc(C(=O)O)cc1COc1ccc2c3c(c(=O)oc2c1)CCC3 | inactive |
| COc1ccc(NC(=O)c2cccc(S(=O)(=O)Nc3ccc(Br)cc3)c2)cn1 | inconclusive [inhibitor, partial curve, poor fit] |
| N=c1c(C(=O)NC2CCCCC2)cc2c(=O)n3ccccc3nc2n1Cc1cccnc1 | inactive |
| CCOC(=O)c1ccc(S(=O)(=O)N2CCN(CC(=O)NC(=O)NC3CCCCC3)CC2)cc1 | inconclusive [inhibitor, single point] |

| SMILES | Potency |
| --- | --- |
| C=CCn1c(COc2ccc(CC)cc2)nnc1SC/C(O)=C(\C#N)c1nc2ccccc2[nH]1 | inconclusive [inhibitor, single point] |
| CCN(CC)CCN1CCN(c2cncc(-c3cccc(N)c3)n2)CC1 | inactive |
| O=C(NCCc1c[nH]c2ccccc12)OCCCCOC(=O)NCCc1c[nH]c2ccccc12 | inconclusive [inhibitor, partial curve, poor fit] |
| O=C1NC(Cc2ccc(O)cc2)c2nc3cc(Cl)ccc3c(=O)n2-c2cc3ccccc3cc21 (stereo not drawn) | inconclusive [inhibitor, full curve, poor fit] |
| O=C1CC(SC(=NCc2ccc3c(c2)OCO3)Nc2ccccc2)C(=O)N1 (stereo not drawn) | inconclusive [inhibitor, partial curve, poor fit] |
| COc1cc(C(=O)N2CCN(Cc3ccccc3C(F)(F)F)CC2)cc(OC)c1OC | inconclusive [inhibitor, single point] |
| Cc1cccc(NC(=O)NCC2CCN(c3ccc(S(=O)(=O)N4CCOCC4)cc3)CC2)c1 | inconclusive [inhibitor, single point] |
| CCCCC(O)(c1ccc(OC)cc1)C(CN1CCOCC1)c1ccccc1 (stereo not drawn) | inconclusive [inhibitor, partial curve, poor fit] |
| CCOc1ccc(CC(=O)Nc2ccc(NC(=O)c3ccco3)cc2)cc1OCC | inconclusive [inhibitor, single point] |
| Cc1cccc(NC(=O)CC2C(=O)NCCN2C(=O)Nc2ccc(Cl)cc2)c1 (stereo not drawn) | inconclusive [inhibitor, partial curve, poor fit] |
| CCCn1c(=N)n(CC(O)COc2ccc(C)cc2)c2ccccc21 (stereo not drawn) | inconclusive [inhibitor, partial curve, poor fit] |
| Cc1oc(-c2ccc(C(=O)NCc3ccc(F)cc3)cc2)nc1CS(=O)c1ccccc1 (stereo not drawn) | inconclusive [inhibitor, single point] |
| COC(=O)C1CN(C(=O)COc2ccccc2C)c2ccccc2O1 (stereo not drawn) | inconclusive [inhibitor, partial curve] |
| CC(C)c1ccc(/C=N/NC(=O)CN(c2cccc(Cl)c2Cl)S(C)(=O)=O)cc1 | inconclusive [inhibitor, partial curve, poor fit] |
| Cc1ccc(S(=O)(=O)c2c(C)nn(C(C)(C)C)c2OC(=O)CC(C)C)cc1 | inconclusive [inhibitor, single point] |
| CCOc1ccc(/C=C/c2nc(C#N)c(NC3CCCCC3)o2)cc1 | inactive |
| COC(=O)c1c(-c2ccccc2OC)sc2cc3c(cc12)OCO3 | inconclusive [inhibitor, single point] |
| Cc1noc(C)c1COC(=O)c1csc2c1CCCC2 | inconclusive [inhibitor, partial curve, poor fit] |
| COc1ccc(C(=O)O/N=C(\C)c2nccs2)cc1 | inconclusive [inhibitor, single point] |
